Assay results published in the supplement of paper PMC3334620.
The full ranking holds about 33,000 sequences; the median of “E-score (-0.5 to 0.5)” is about -0.041, and the highest 2% start at about 0.37. The list shows a part of the results.

Biological target: T1, Ecm22 (UniProt Q05958)
T1 sequence: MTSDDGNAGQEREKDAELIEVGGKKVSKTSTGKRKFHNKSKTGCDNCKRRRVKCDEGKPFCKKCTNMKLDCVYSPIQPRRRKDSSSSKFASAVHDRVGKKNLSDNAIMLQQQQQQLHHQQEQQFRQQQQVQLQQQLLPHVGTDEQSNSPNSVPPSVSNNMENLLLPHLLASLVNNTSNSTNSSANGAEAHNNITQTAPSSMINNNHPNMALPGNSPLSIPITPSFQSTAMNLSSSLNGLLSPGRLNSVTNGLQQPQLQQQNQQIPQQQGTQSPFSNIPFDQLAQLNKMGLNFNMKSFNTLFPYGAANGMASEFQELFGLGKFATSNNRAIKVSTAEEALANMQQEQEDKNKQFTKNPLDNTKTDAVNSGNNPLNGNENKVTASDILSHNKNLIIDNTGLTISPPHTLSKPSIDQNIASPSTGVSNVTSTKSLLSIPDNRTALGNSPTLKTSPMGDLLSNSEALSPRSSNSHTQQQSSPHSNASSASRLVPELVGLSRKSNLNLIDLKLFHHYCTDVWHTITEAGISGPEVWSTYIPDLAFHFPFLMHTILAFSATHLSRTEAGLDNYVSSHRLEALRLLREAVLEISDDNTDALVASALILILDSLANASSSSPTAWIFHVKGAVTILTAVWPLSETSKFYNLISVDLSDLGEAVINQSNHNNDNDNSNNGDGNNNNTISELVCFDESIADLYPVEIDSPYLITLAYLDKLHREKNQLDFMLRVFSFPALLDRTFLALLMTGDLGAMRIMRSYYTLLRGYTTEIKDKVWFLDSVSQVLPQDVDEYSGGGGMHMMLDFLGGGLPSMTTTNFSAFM
Assay: PBM E-score (8-mer binding enrichment) (E-score (-0.5 to 0.5)); higher = stronger / more preferred TF binding; most listed sequences are background and not binding sites
Settings: protein concentration: 200 nM; construct: GST-full length
Method: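 Universal 'all 10-mer' protein binding microarrays (Agilent AMADID 015681) probed with GST-tagged S. cerevisiae TFs (full-length or DBD) made by in vitro transcription/translation (PURExpress), about 100-200 nM. Bound TF was detected with fluorescent anti-GST. Each ungapped 8-mer (which stands for itself and its reverse complement) is scored by the PBM enrichment score (E-score), a modified Wilcoxon-Mann-Whitney statistic from -0.5 to +0.5, computed with the Universal PBM Analysis Suite. Scale: above 0.35 generally sequence-specific binding.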

| Sequence | PBM E-score |
| --- | --- |
| AGGCGTCA | -0.1 |
| AGTGTATG | 0.13 |
| AAGCATTC | -0.157 |
| ATTCCGAG | 0.184 |
| CGGGGACC | -0.041 |
| CGCTCCCC | 0.149 |
| TCCTCAAA | -0.248 |
| GGCCGACC | -0.224 |
| TATGCAAA | 0.00949 |
| AAATGCTA | 0.0254 |
| AATGCATC | -0.0805 |
| AACGGGCA | 0.287 |
| AGAATATA | 0.032 |
| AGGGTAAT | -0.158 |
| ACGATTCA | 0.319 |
| CCTCGTCA | 0.232 |
| ACTCAGTG | -0.17 |
| CCCTGTAA | -0.193 |
| CTAGTTGA | -0.225 |
| CTCACTAC | -0.0354 |
| AAAAAGCT | -0.193 |
| AATTAGAG | -0.152 |

| Sequence | PBM E-score |
| --- | --- |
| AGGTTAAA | -0.0746 |
| ACACAGAC | -0.0717 |
| CGAGGGCG | 0.131 |
| ACCATATC | 0.138 |
| ATATATGG | -0.0801 |
| AGTCTAAG | 0.00418 |
| CAGCTTGA | -0.252 |
| GCAGTTCC | -0.0351 |
| AGTACATA | -0.0214 |
| ATTCTCAA | 0.0315 |
| AGTCCTGG | -0.232 |
| AGGAAAGA | -0.217 |
| ACCCGTCG | 0.0875 |
| AACTTTGA | -0.18 |
| AGCACTCG | 0.0415 |
| CGCATCTC | -0.0114 |
| TCCTCGCA | 0.231 |
| CAAAGATG | -0.154 |
| CCATCCTC | -0.00148 |
| GACCCATC | -0.0195 |
| GAAACACA | -0.0325 |
| CGCGGAAA | 0.035 |

| Sequence | PBM E-score |
| --- | --- |
| CAGCGACA | -0.00433 |
| CGCAGAAC | 0.131 |
| CTGCTGCA | -0.0858 |
| CATTTCGG | -0.0209 |
| CCACTTCC | 0.0365 |
| ACGGATAA | 0.159 |
| ATCAAGAC | -0.0718 |
| AGTTTGAC | 0.0023 |
| CCACGCTA | -0.0414 |
| CAGTGTCA | -0.0961 |
| CTCTACGA | 0.37 |
| TACATAGA | -0.197 |
| AGCCTCCG | -0.0869 |
| AAGTCATA | -0.0414 |
| GATACTAA | 0.0504 |
| GATTGGAA | -0.0505 |
| AACCGGCG | 0.163 |
| GTCTCACA | -0.113 |
| AGAGGGGA | -0.201 |
| GCAACCGC | -0.126 |
| ATGGAAAG | -0.0344 |
| ACGCAAGA | 0.0257 |

| Sequence | PBM E-score |
| --- | --- |
| ACAGGTTG | -0.14 |
| CCGTTTCA | 0.135 |
| CGCAACAC | -0.0561 |
| GCGCAACC | -0.142 |
| CACGGTAA | -0.143 |
| GCGCATAC | 0.0841 |
| GGTCTAGA | 0.161 |
| CATTACGG | -0.0743 |
| AATTATTA | 0.0887 |
| CTCCCCAA | -0.228 |
| CCGATATA | 0.0959 |
| GTTCCCAA | 0.165 |
| CGCTAGCC | -0.299 |
| CTCCTCAA | -0.036 |
| ACGTCTAA | -0.0766 |
| CCTTTTCG | 0.235 |
| CCGTTCAG | 0.334 |
| AGTTGCCG | -0.023 |
| CTTAGGCC | -0.211 |
| ATCTAAAG | -0.0827 |
